The campaign covered roughly 2,000 compounds. About 110 (5.5%) showed an effect of 50% or more. The list shows a part of the results.

A word on the inhibition: it is the relative decrease from the control value, in per cent.

For the test, the target named is Genome polyprotein (dengue virus type 2) (UniProt P29990).
Setting [1] is: Thailand/16681/1984, Concentration 25.0 uM, Number of replicates 1.0.

Consider `CCCCCC(=O)N[C@H](C(=O)NCc1ccc(N)nc1)c1ccc(OCc2ccccc2)cc1`, for which the inhibition was -5.35% (Thailand/16681/1984, Concentration 49.5 uM, Number of replicates 2.0, Standard deviation 0.5514996049599625 %); 2.25% (Thailand/16681/1984, Concentration 99.01 uM, Number of replicates 2.0, Standard deviation 6.42872691267386 %); -1.4% (Thailand/16681/1984, Concentration 198.0 uM, Number of replicates 2.0, Standard deviation 0.7744386054656718 %).
As for `O=Cc1ccc(N2CCC(C(=O)Nc3ccccc3Oc3ccccc3)CC2)cc1`, under setting [1], the inhibition is 14.2%.
On the same count and under the same terms, in the case of `O=Cc1ccc(N2CCC(C(=O)Nc3ccccc3Sc3ccccc3)CC2)cc1` it was 12.1%; in that of `CC(C)CCN(CCC(C)C)C(=O)C1CCN(c2ccc(C=O)cc2)CC1`, 14.1%.
Take `CNC(=O)c1cc(Cl)ccc1NS(=O)(=O)c1cccc(CN(C)C)c1`: the inhibition (Thailand/16681/1984, Concentration 49.5 uM, Number of replicates 2.0, Standard deviation 0.23875835647893978 %) is -0.451%; the inhibition (Thailand/16681/1984, Concentration 99.01 uM, Number of replicates 2.0, Standard deviation 0.04440904899457988 %) was found to be 0.244%; the inhibition (Thailand/16681/1984, Concentration 198.0 uM, Number of replicates 2.0, Standard deviation 0.006207725023472561 %) stood at 1.15%.
Regarding `CC(C)Nc1nc2ccc(C(=O)Nc3cc(-c4nccn4C)n[nH]3)cc2[nH]1`, the inhibition is, setting by setting: (Thailand/16681/1984, Concentration 49.5 uM, Number of replicates 2.0, Standard deviation 0.1078455245570697 %) -3.38%; (Thailand/16681/1984, Concentration 99.01 uM, Number of replicates 2.0, Standard deviation 0.6053443955687522 %) -5.01%; (Thailand/16681/1984, Concentration 198.0 uM, Number of replicates 2.0, Standard deviation 0.5728282705299915 %) -7.32%.
As for `O=c1c2ccccc2ncn1C1CN(Cc2c[nH]c3ccccc23)C1`, the inhibition (Thailand/16681/1984, Concentration 49.5 uM, Number of replicates 2.0, Standard deviation 0.9406116594391499 %) is -0.283%; the inhibition (Thailand/16681/1984, Concentration 99.01 uM, Number of replicates 2.0, Standard deviation 0.7556417116224043 %) was -0.297%; the inhibition (Thailand/16681/1984, Concentration 198.0 uM, Number of replicates 2.0, Standard deviation 0.5108694529395815 %) worked out at 1.4%.
Take `COC(=O)[C@@H](C)NC(=O)Cc1cc(OC)nc(N2CCNCC2)n1`: the inhibition is, setting by setting: (Thailand/16681/1984, Concentration 49.5 uM, Number of replicates 2.0, Standard deviation 1.2325155060163866 %) -0.382%; (Thailand/16681/1984, Concentration 99.01 uM, Number of replicates 2.0, Standard deviation 1.7034196734708464 %) -0.714%; (Thailand/16681/1984, Concentration 198.0 uM, Number of replicates 2.0, Standard deviation 0.018555769747303108 %) -0.002%.
For `COC(=O)c1ccc(F)c(Cn2ncc(C3CCNCC3)c2C)c1`, the inhibition (Thailand/16681/1984, Concentration 49.5 uM, Number of replicates 2.0, Standard deviation 1.7959816127929562 %) was -0.703%; the inhibition (Thailand/16681/1984, Concentration 99.01 uM, Number of replicates 2.0, Standard deviation 0.6985577144345978 %) was -0.026%; the inhibition (Thailand/16681/1984, Concentration 198.0 uM, Number of replicates 2.0, Standard deviation 2.047440627042714 %) worked out at 1.74%.
As to `O=Cc1ccc(N2CCC(C(=O)NC3C4CC5CC(C4)CC3C5)CC2)cc1` (centres undefined), the inhibition under setting [1] was determined as 6.37%.
For `COC(=O)c1cncc(C(=O)Nc2ccncc2C)c1`, the inhibition reads like this: (Thailand/16681/1984, Concentration 49.5 uM, Number of replicates 2.0, Standard deviation 6.3209660189886 %) 2.4%; (Thailand/16681/1984, Concentration 99.01 uM, Number of replicates 2.0, Standard deviation 0.9582277355643998 %) -1.8%; (Thailand/16681/1984, Concentration 198.0 uM, Number of replicates 2.0, Standard deviation 0.7051109593221626 %) -2.38%.
Consider `N#Cc1cccc(NC(=O)c2cccc(OCc3c(Cl)cccc3Cl)c2)c1`, for which the inhibition turned out to be 1.9% (Thailand/16681/1984, Concentration 49.5 uM, Number of replicates 2.0, Standard deviation 0.9750482899240065 %); 16.1% (Thailand/16681/1984, Concentration 99.01 uM, Number of replicates 2.0, Standard deviation 10.511808397875392 %); 7% (Thailand/16681/1984, Concentration 198.0 uM, Number of replicates 2.0, Standard deviation 5.918696266313343 %).
For the compound `Cc1cnccc1NC(=O)c1cncc(S(C)(=O)=O)c1`, the inhibition amounted to 1.61% (Thailand/16681/1984, Concentration 49.5 uM, Number of replicates 2.0, Standard deviation 0.09362930826064811 %); 2.02% (Thailand/16681/1984, Concentration 99.01 uM, Number of replicates 2.0, Standard deviation 0.10343333957385824 %); 2.99% (Thailand/16681/1984, Concentration 198.0 uM, Number of replicates 2.0, Standard deviation 0.39657621920361824 %).
With `Cc1ccc([N+](=O)[O-])c(NC(=O)C2CCN(c3ccc(C=O)cc3)CC2)c1`, under setting [1], the inhibition was determined as 13.9%.
The same measure, in the same setting: in the case of `CCOC(=O)[C@H]1CCCN(C(=O)C2CCN(c3ccc(C=O)cc3)CC2)C1` it was 11.6%.
For `Cc1cc(CO)c2cccc(Cc3cccc(C(=O)Nc4cccc(C(N)=O)c4)c3)c2n1`, the inhibition (Thailand/16681/1984, Concentration 49.95 uM, Number of replicates 2.0, Standard deviation 0.8487279472032775 %) is 0.063% and the inhibition (Thailand/16681/1984, Concentration 99.9 uM, Number of replicates 2.0, Standard deviation 0.25943340872226184 %) came out at 4.4%.
In the case of `Clc1ccc2[nH]cc(Cc3ccc(-c4nn[nH]n4)cc3)c2c1`, the inhibition was determined as 89.8% (Thailand/16681/1984, Concentration 99.5 uM, Number of replicates 2.0, Standard deviation 0.137702183454793 %) and 98.9% (Thailand/16681/1984, Concentration 295.6 uM, Number of replicates 2.0, Standard deviation 0.013886206472581278 %).
As for `NCc1cccc(NC(=O)[C@H]2Cc3ccccc3N2C(=O)OCc2ccccc2)c1`, the inhibition reads like this: (Thailand/16681/1984, Concentration 49.5 uM, Number of replicates 2.0, Standard deviation 2.491282682389966 %) -5.82%; (Thailand/16681/1984, Concentration 99.01 uM, Number of replicates 2.0, Standard deviation 3.038508091148741 %) -5.62%; (Thailand/16681/1984, Concentration 198.0 uM, Number of replicates 2.0, Standard deviation 5.577097576419093 %) 10.2%.
In the case of `O=Cc1ccc(N2CCC(C(=O)Nc3ccc(Cl)c(Cl)c3)CC2)cc1`, the inhibition under setting [1] stood at 11.8%.
As for `CN1CCN(Cc2cccc(CNC(=O)C3CCN(c4ccc(C=O)cc4)CC3)c2)CC1`, under setting [1], the inhibition stood at 9.88%.
For the compound `Cc1cc(CO)c2cccc(CC(=O)N3CCC(C(=O)O)CC3)c2n1`, the inhibition reads like this: (Thailand/16681/1984, Concentration 49.95 uM, Number of replicates 2.0, Standard deviation 2.0194119612586054 %) -5.53%; (Thailand/16681/1984, Concentration 99.9 uM, Number of replicates 2.0, Standard deviation 1.900115643723308 %) -3.5%.

The values are drawn from ChEMBL document CHEMBL5606460, “ASAP - DENV-2 NS2B-NS3 protease fluorescence single point” (2024).
